According to US9873709B2 (priority 2013, dated 2018):
pKi: −log10 of the molar value.

Biological target: isolated recombinant JAK1 kinase domain (Homo sapiens (Human), UniProt P23458)
Details: read-out: JAK1 Ki; isolated recombinant JAK1 kinase domain, 25 μM ATP

Compound | pKi
CN1C[C@@H]2CCN(C(=O)c3ccc(Nc4nc5c(C6=CCN(C(=O)CCC(F)(F)F)CC6)cccn5n4)cc3)[C@@H]2C1 [Example 2-326, 1-[4-[2-[4-[(3aS,6aS)-5-methyl-2,3,3a,4,6,6a-hexahydropyrrolo[2,3-c]pyrrole-1-carbonyl]anilino]-[1,2,4]triazolo[1,5-a]pyridin-8-yl]-3,6-dihydro-2H-pyridin-1-yl]-4,4,4-trifluoro-butan-1-one] | 9.01
CNC(=O)C1CN(C(C)C)CCN1C(=O)c1ccc(Nc2nc3c(C4=CCN(C(=O)CCC(F)(F)F)CC4)cccn3n2)cc1 (stereo not drawn) [Example 2-327, 4-isopropyl-N-methyl-1-[4-[[8-[1-(4,4,4-trifluorobutanoyl)-3,6-dihydro-2H-pyridin-4-yl]-[1,2,4]triazolo[1,5-a]pyridin-2-yl]amino]benzoyl] piperazine-2-carboxamide] | 8.74
CN1CCC2(C1)CN(C(=O)c1ccc(Nc3nc4c(C5=CCN(C(=O)CCC(F)(F)F)CC5)cccn4n3)cc1)C2 [Example 2-328, 4,4,4-trifluoro-1-[4-[2-[4-(7-methyl-2,7-diazaspiro[3.4]octane-2-carbonyl)anilino]-[1,2,4]triazolo[1,5-a]pyridin-8-yl]-3,6-dihydro-2H-pyridin-1-yl]butan-1-one] | 9.30
O=C(CCC(F)(F)F)N1CC=C(c2cccn3nc(Nc4ccc(C(=O)N5CCN(C6CCCCC6)CC5)cc4)nc23)CC1 [Example 2-329, 1-[4-[2-[4-(4-cyclohexylpiperazine-1-carbonyl)anilino]-[1,2,4]triazolo[1,5-a]pyridin-8-yl]-3,6-dihydro-2H-pyridin-1-yl]-4,4,4-trifluoro-butan-1-one] | 9.04
CC(C)N1CCC(N(C)C(=O)c2ccc(Nc3nc4c(C5=CCN(C(=O)CCC(F)(F)F)CC5)cccn4n3)cc2)CC1 [Example 2-330, N-(1-isopropyl-4-piperidyl)-N-methyl-4-[[8-[1-(4,4,4-trifluorobutanoyl)-3,6-dihydro-2H-pyridin-4-yl]-[1,2,4]triazolo[1,5-a]pyridin-2-yl]amino]benzamide] | 8.79
COCCN1CCN(C(=O)c2ccc(Nc3nc4c(C5=CCN(C(=O)CCC(F)(F)F)CC5)cccn4n3)cc2)CC1 [Example 2-331, 4,4,4-trifluoro-1-[4-[2-[4-[4-(2-methoxyethyl)piperazine-1-carbonyl]anilino]-[1,2,4]triazolo[1,5-a]pyridin-8-yl]-3,6-dihydro-2H-pyridin-1-yl]butan-1-one] | 8.93
CN1C(C)(C)CC(NC(=O)c2ccc(Nc3nc4c(C5=CCN(C(=O)CCC(F)(F)F)CC5)cccn4n3)cc2)CC1(C)C [Example 2-332, N-(1,2,2,6,6-pentamethyl-4-piperidyl)-4-[[8-[1-(4,4,4-trifluorobutanoyl)-3,6-dihydro-2H-pyridin-4-yl]-[1,2,4]triazolo[1,5-a]pyridin-2-yl]amino]benzamide] | 9.29
CC(C)(CN1CCOCC1)NC(=O)c1ccc(Nc2nc3c(C4=CCN(C(=O)CCC(F)(F)F)CC4)cccn3n2)cc1 [Example 2-333, N-(1,1-dimethyl-2-morpholino-ethyl)-4-[[8-[1-(4,4,4-trifluorobutanoyl)-3,6-dihydro-2H-pyridin-4-yl]-[1,2,4]triazolo[1,5-a]pyridin-2-yl]amino]benzamide] | 9.00
CC(CN1CCCCC1)NC(=O)c1ccc(Nc2nc3c(C4=CCN(C(=O)CCC(F)(F)F)CC4)cccn3n2)cc1 (stereo not drawn) [Example 2-334, N-[1-methyl-2-(1-piperidyl)ethyl]-4-[[8-[1-(4,4,4-trifluorobutanoyl)-3,6-dihydro-2H-pyridin-4-yl]-[1,2,4]triazolo[1,5-a]pyridin-2-yl]amino]benzamide] | 8.98
CN1CCCC(CNC(=O)c2ccc(Nc3nc4c(C5=CCN(C(=O)CCC(F)(F)F)CC5)cccn4n3)cc2)C1 (stereo not drawn) [Example 2-337, N-[(1-methyl-3-piperidyl)methyl]-4-[[8-[1-(4,4,4-trifluorobutanoyl)-3,6-dihydro-2H-pyridin-4-yl]-[1,2,4]triazolo[1,5-a]pyridin-2-yl]amino]benzamide] | 9.24
O=C(CCC(F)(F)F)N1CC=C(c2cccn3nc(Nc4ccc(C(=O)N5CCC(c6ccncc6)C5)cc4)nc23)CC1 (stereo not drawn) [Example 2-338, 4,4,4-trifluoro-1-[4-[2-[4-[3-(4-pyridyl)pyrrolidine-1-carbonyl]anilino]-[1,2,4]triazolo[1,5-a]pyridin-8-yl]-3,6-dihydro-2H-pyridin-1-yl]butan-1-one] | 9.40
O=C(CCC(F)(F)F)N1CC=C(c2cccn3nc(Nc4ccc(C(=O)N5CCCC(N6CCOCC6)C5)cc4)nc23)CC1 (stereo not drawn) [Example 2-339, 4,4,4-trifluoro-1-[4-[2-[4-(3-morpholinopiperidine-1-carbonyl)anilino]-[1,2,4]triazolo[1,5-a]pyridin-8-yl]-3,6-dihydro-2H-pyridin-1-yl]butan-1-one] | 8.94
O=C(CCC(F)(F)F)N1CC=C(c2cccn3nc(Nc4ccc(C(=O)N5CCN(CC6CCCO6)CC5)cc4)nc23)CC1 (stereo not drawn) [Example 2-340, 4,4,4-trifluoro-1-[4-[2-[4-[4-(tetrahydrofuran-2-ylmethyl)piperazine-1-carbonyl]anilino]-[1,2,4]triazolo[1,5-a]pyridin-8-yl]-3,6-dihydro-2H-pyridin-1-yl]butan-1-one] | 9.02
O=C(CCC(F)(F)F)N1CC=C(c2cccn3nc(Nc4ccc(C(=O)N5CCCC(c6ccccn6)C5)cc4)nc23)CC1 (stereo not drawn) [Example 2-341, 4,4,4-trifluoro-1-[4-[2-[4-[3-(2-pyridyl)piperidine-1-carbonyl]anilino]-[1,2,4]triazolo[1,5-a]pyridin-8-yl]-3,6-dihydro-2H-pyridin-1-yl]butan-1-one] | 9.08
CNC(=O)C1CN(C(=O)c2ccc(Nc3nc4c(C5=CCN(C(=O)CCC(F)(F)F)CC5)cccn4n3)cc2)CCN1Cc1ccccc1 (stereo not drawn) [Example 2-342, 1-benzyl-N-methyl-4-[4-[[8-[1-(4,4,4-trifluorobutanoyl)-3,6-dihydro-2H-pyridin-4-yl]-[1,2,4]triazolo[1,5-a]pyridin-2-yl]amino]benzoyl] piperazine-2-carboxamide] | 9.13
O=C(NCCc1ccncc1)c1ccc(Nc2nc3c(C4=CCN(C(=O)CCC(F)(F)F)CC4)cccn3n2)cc1 [Example 2-343, N-[2-(4-pyridyl)ethyl]-4-[[8-[1-(4,4,4-trifluorobutanoyl)-3,6-dihydro-2H-pyridin-4-yl]-[1,2,4]triazolo[1,5-a]pyridin-2-yl]amino]benzamide] | 9.21
CC(=O)N1CC=C(c2cccn3nc(Nc4ccc(C(=O)N(C)C5CCN(C)CC5)cc4)nc23)CC1 [Example 2-344, 4-[[8-(1-acetyl-3,6-dihydro-2H-pyridin-4-yl)-[1,2,4]triazolo[1,5-a]pyridin-2-yl]amino]-N-methyl-N-(1-methyI-4-piperidyl)benzamide] | 7.70
CN1CCC(N(C)C(=O)c2ccc(Nc3nc4c(C5=CCN(C(=O)OC6CCOC6)CC5)cccn4n3)cc2)CC1 (stereo not drawn) [Example 2-346, tetrahydrofuran-3-yl 4-[2-[4-[methyl-(1-methyl-4-piperidyl)carbamoyl]anilino]-[1,2,4]triazolo[1,5-a]pyridin-8-yl]-3,6-dihydro-2H-pyridine-1-carboxylate] | 8.34
CN1CCC(N(C)C(=O)c2ccc(Nc3nc4c(C5=CCN(C(=O)[C@H]6CC[C@H](C#N)CC6)CC5)cccn4n3)cc2)CC1 [Example 2-350, 4-[[8-[1-(4-cyanocyclohexanecarbonyl)-3,6-dihydro-2H-pyridin-4-yl]-[1,2,4]triazolo[1,5-a]pyridin-2-yl]amino]-N-methyl-N-(1-methyl-4-piperidyl)benzamide] | 7.75
CN1CCC(N(C)C(=O)c2ccc(Nc3nc4c(C5=CCN(C(=O)OCC6CC6)CC5)cccn4n3)cc2)CC1 [Example 2-353, cyclopropylmethyl 4-[2-[4-[methyl-(1-methyl-4-piperidyl)carbamoyl]anilino]-[1,2,4]triazolo[1,5-a]pyridin-8-yl]-3,6-dihydro-2H-pyridine-1-carboxylate] | 8.58
CCOC(=O)N1CC=C(c2cccn3nc(Nc4ccc(C(=O)N5CCN(C)CC5)cc4)nc23)CC1 [Example 2-354, ethyl 4-[2-[4-(4-methylpiperazine-1-carbonyl)anilino]-[1,2,4]triazolo[1,5-a]pyridin-8-yl]-3,6-dihydro-2H-pyridine-1-carboxylate] | 8.41
CCOC(=O)N1CC=C(c2cccn3nc(Nc4ccc(C(=O)NC(C)CN(C)C)cc4)nc23)CC1 (stereo not drawn) [Example 2-355, ethyl 4-[2-[4-[[2-(dimethylamino)-1-methyl-ethyl]carbamoyl]anilino]-[1,2,4]triazolo[1,5-a]pyridin-8-yl]-3,6-dihydro-2H-pyridine-1-carboxylate] | 8.52
CCOC(=O)N1CC=C(c2cccn3nc(Nc4ccc(C(=O)N5CCCNCC5)cc4)nc23)CC1 [Example 2-356, ethyl 4-[2-[4-(1,4-diazepane-1-carbonyl)anilino]-[1,2,4]triazolo[1,5-a]pyridin-8-yl]-3,6-dihydro-2H-pyridine-1-carboxylate] | 8.21
CCOC(=O)N1CC=C(c2cccn3nc(Nc4ccc(C(=O)N5CCC(NC)C5)cc4)nc23)CC1 (stereo not drawn) [Example 2-357, ethyl 4-[2-[4-[3-(methylamino)pyrrolidine-1-carbonyl]anilino]-[1,2,4]triazolo[1,5-a]pyridin-8-yl]-3,6-dihydro-2H-pyridine-1-carboxylate] | 8.41
CCOC(=O)N1CC=C(c2cccn3nc(Nc4ccc(C(=O)N5CCC(c6ccccn6)CC5)cc4)nc23)CC1 [Example 2-358, ethyl 4-[2-[4-[4-(2-pyridyl)piperidine-1-carbonyl]anilino]-[1,2,4]triazolo[1,5-a]pyridin-8-yl]-3,6-dihydro-2H-pyridine-1-carboxylate] | 8.70
CCOC(=O)N1CC=C(c2cccn3nc(Nc4ccc(C(=O)N(C)Cc5cccc6cccnc56)cc4)nc23)CC1 [Example 2-359, ethyl 4-[2-[4-[methyl(8-quinolylmethyl)carbamoyl]anilino]-[1,2,4]triazolo[1,5-a]pyridin-8-yl]-3,6-dihydro-2H-pyridine-1-carboxylate] | 8.21
CCOC(=O)N1CC=C(c2cccn3nc(Nc4ccc(C(=O)NC5CCNCC5)cc4)nc23)CC1 [Example 2-360, ethyl 4-[2-[4-(4-piperidylcarbamoyl)anilino]-[1,2,4]triazolo[1,5-a]pyridin-8-yl]-3,6-dihydro-2H-pyridine-1-carboxylate] | 8.88
